Experimental findings from the supplement of paper PMC3334620 are described below.

In all, about 33,000 sequences were measured (“E-score (-0.5 to 0.5)”: median about -0.016, highest 2% from about 0.32 on). This is one part of the list.

The experiment concerns the target T1, Stp1 (UniProt B3LFK1).
T1 sequence: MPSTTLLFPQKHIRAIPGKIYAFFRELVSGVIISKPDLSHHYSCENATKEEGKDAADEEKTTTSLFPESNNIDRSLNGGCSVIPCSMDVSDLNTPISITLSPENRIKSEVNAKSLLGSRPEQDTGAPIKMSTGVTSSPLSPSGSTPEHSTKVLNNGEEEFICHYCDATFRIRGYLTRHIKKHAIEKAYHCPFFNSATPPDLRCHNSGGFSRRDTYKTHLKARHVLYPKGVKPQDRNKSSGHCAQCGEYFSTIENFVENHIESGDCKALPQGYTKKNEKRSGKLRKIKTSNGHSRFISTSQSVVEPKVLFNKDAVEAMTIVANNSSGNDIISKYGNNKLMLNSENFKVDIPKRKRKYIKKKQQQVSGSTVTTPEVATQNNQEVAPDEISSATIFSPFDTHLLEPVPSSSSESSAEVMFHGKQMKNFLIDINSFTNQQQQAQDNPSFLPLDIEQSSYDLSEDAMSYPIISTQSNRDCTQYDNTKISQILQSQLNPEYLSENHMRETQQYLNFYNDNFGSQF
Nature of the experiment: PBM E-score (8-mer binding enrichment) (E-score (-0.5 to 0.5)); higher = stronger / more preferred TF binding; most listed sequences are background and not binding sites. Conditions: protein concentration: 200 nM; construct: GST-full length. The procedure, abridged:
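Each ungapped eight-base word and its reverse complement, pooled, received an E-score from the Universal PBM Analysis Suite. Underlying scans, normalised with masliner, recorded fluorescent anti-GST bound to GST-tagged yeast transcription factors. These were applied at about 100-200 nM to universal all-10-mer Agilent arrays double-stranded by primer extension.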
CTCTTGAA: the “PBM E-score” value turned out to be 0.106.
The same measure for AGTAGTAA: 0.0162; for CGACGGGA: 0.0948; for AGGGACCG: -0.252.
The same measure for AGATATCG: -0.0236.
The same measure for CAACGATC: -0.133; for TCAACGGA: -0.112; for TAGTGGCA: 0.00013.
For AAAGGCAG, the “PBM E-score” value turned out to be 0.172.
The same measure for AGTCGAGA: -0.098; for TACGCAAA: -0.0339; for ATAGAACG: 0.259.
The same measure for ATCATCGA: -0.0598; for CATGCCGC: 0.427; for CACGATAA: 0.126.
The same measure for CGTTCATA: 0.156; for CAACCTGA: -0.149.
Regarding TCCCTAGA, the “PBM E-score” value came out at 0.0849.
The same measure for GATCGCGC: 0.206; for GGTCGGCA: 0.00959.
The same measure for ACATCTTC: 0.0131; for AAGAGGCT: 0.0613.
Regarding CGAGTGCC, the “PBM E-score” value was determined as 0.255.
The same measure for ATTTATCG: 0.2; for GGAGCTCC: -0.416.
The same measure for CCTGGGCG: 0.0498; for AACAAGGA: 0.205.
With ACGGAAAC, the “PBM E-score” value turned out to be 0.0046.
The same measure for CATATACG: 0.17; for ACCTGGCC: -0.0748; for GAGTTTGA: -0.018.
The same measure for ACCGTTAA: -0.00718; for TGAAATCA: 0.148.
The same measure for CAGAAAGA: 0.0676; for CACATTTA: -0.013.
For the sequence CCGGGTCA, the “PBM E-score” value is -0.202.
As to CCTAGCTA, the “PBM E-score” value was -0.229.
The same measure for GCATACTA: 0.0331.
The same measure for CCTACCAG: -0.315; for GAACCCCA: -0.224; for CGACTAAC: -0.0568.
The same measure for CACGTAGA: -0.0113; for AGGTTGTG: -0.0649.
Consider ATGGCCGC, for which the “PBM E-score” value was found to be 0.216.
The same measure for CGTTTGGC: 0.0114; for ATACAACC: 0.205.
The same measure for ACCGATGA: -0.096.
With ACTTGAAA, the “PBM E-score” value was 0.0963.
With CCCATTCA, the “PBM E-score” value was -0.0474.
The same measure for GGACCATA: -0.0836.
The same measure for ATGACCAC: -0.0753.
The same measure for GATTCAAC: 0.147; for GTGCGGAA: 0.132.
Turning to AATTCCGC, the “PBM E-score” value worked out at 0.103.
For AAAAGCAT, the “PBM E-score” value was -0.0178.
In the case of CACAGATA, the “PBM E-score” value is -0.0503.
The same measure for ACGCATTC: -0.106.
The same measure for ACTTTAGA: 0.011; for AAACACCG: 0.139; for ACGATAGC: -0.0624.
The same measure for AGCGACGC: -0.0144.
Regarding ACTTCACG, the “PBM E-score” value is -0.149.
The same measure for GGGGCTTA: -0.356; for AGGGACAC: 0.131.
As to CAGTCTGC, the “PBM E-score” value is -0.183.
The same measure for CCGTGGCA: 0.357.
In the case of CGCTTAGC, the “PBM E-score” value is -0.0622.
The same measure for ACGAATAT: 0.079; for GCGGCTCC: 0.315; for AGCACCCG: -0.144.
The same measure for GTACGACA: -0.00808.
GGTTATTA: the “PBM E-score” value was 0.16.
The same measure for ATCACCCA: -0.178.
The same measure for GGAATCCC: -0.216.
The same measure for ACCTATTG: -0.156.
Regarding GACAGCGA, the “PBM E-score” value is -0.189.
The same measure for CTTAATTC: 0.143; for GGATCACC: -0.154.
On to CTCCGTCC, for which the “PBM E-score” value was -0.2.
For AGCACCAT, the “PBM E-score” value is -0.273.
Turning to ATATAGCG, the “PBM E-score” value came to 0.0103.
The same measure for CAACGTGC: 0.145; for CGTGCAAG: 0.114.
The same measure for CATATCCG: 0.0484.
The same measure for GAATCCAC: 0.0318; for AGGTAAAC: 0.156; for AGCTCTAT: -0.215.
With CAGAAACC, the “PBM E-score” value came out at 0.0261.
The same measure for CGTTCGGA: 0.0237; for CACAGGGA: -0.0963; for AACGCCCA: 0.122.
The same measure for CGCCTTAG: 0.234; for CTCCACTC: -0.277.
The same measure for AGCTGTCA: -0.1; for AACGGCTC: 0.407.
Regarding ACTGTGGC, the “PBM E-score” value was -0.143.
The same measure for ACGCGTGA: 0.15.
The same measure for CCTAAAAG: -0.21.
The same measure for CAGGAAAG: -0.122; for AACGTACA: 0.0458.
In the case of GGTAACTA, the “PBM E-score” value turned out to be 0.128.
The same measure for CGGCCGGC: 0.235; for CATTCACC: -0.00482.
The same measure for CGTGCGTC: 0.225; for CAAGGCTG: -0.171.
The same measure for GGCAGTCA: 0.0148; for ATATCGCG: 0.127.
On to AACGGAGA, for which the “PBM E-score” value was determined as 0.0583.
The same measure for CACAGGCA: 0.0162.
The same measure for GAGGAGCC: 0.0169.
